# ± gives the standard deviation. This is a selection; strong and weak results do not stand in their true shares.
# Test system: MIWI (PIWIL1) piRISC loaded with L1MC piRNA (30 nt)
# Test: pre-steady-state target cleavage rate (min^-1); MIWI and MILI are mouse PIWI proteins and EfPiwi is from a freshwater sponge; tags in brackets are library labels; higher = faster piRNA-guided slicing of the target
# Conditions: guide: L1MC piRNA 5'p-UAACUAAAUACUAUGCAAGCUGUAGGUCCU
# Outline: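 Cleave-'n-Seq: 1 nM active affinity-purified piRISC with one synthetic guide and 0.1 nM transcribed, DNA-blocked target RNA library were mixed, with or without 500 nM GTSF1 partner protein, in HEPES–potassium acetate buffer at 33 °C for 0–8 or 0–960 min. Uncleaved targets were sequenced and normalised to depth and to weakly complementary targets, three trials were pooled, and k3 was capped at 0.0001 min^-1. The pre-steady-state cleavage rate was fitted […].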
# [1] = auxiliary factor: 500 nM mouse GTSF1
# [2] = auxiliary factor: none (no GTSF1)
Sequence,pre-steady-state target cleavage rate [1],pre-steady-state target cleavage rate [2]
AGGACCUACAGCUUGCAUAGUAUGUUAGUUA,0.601 ± 0.067,0.0392 ± 0.0089
UCCUGGAAGAGCUUGCUUAGUAUUUAGUUA,0.761 ± 0.051,0.0227 ± 0.0089
AGGAGGAACAGCUUGCAUAGUAUUUUCAAA,0.288 ± 0.045,0.00367 ± 0.0022
UGGACCUACAGCUUGCAAAGUAUUUAGAAA,0.299 ± 0.028,0.00675 ± 0.0025
UCCUGGAUGUGCUUGCAUAUUAUUUAGUUA,0.205 ± 0.014,0.029 ± 0.0086
UCCACCUACAGCUUGCAUUGUAUUUAGAUA,0.215 ± 0.025,0.00762 ± 0.002
UCCUGGUACAGCUUGCAAACUAUUUAGUUA,0.116 ± 0.019,0.00737 ± 0.0024
UCCUGGAACAGCUUGCAUAGUAUUUAGAUUA,0.21 ± 0.029,0.0342 ± 0.0092
UCCUGCUACAGCUUGCAUAGUAUUUAGUUG [g2:g25:cont:t1G],0.229 ± 0.019,0.0367 ± 0.0072
UCCUCCUAGAGCUUGCAUAGUAUAUAGUUA,0.663 ± 0.08,0.0142 ± 0.0031
UGGACCUACAGCUUGGAUAGUAUUAAGUUA,0.732 ± 0.051,0.0338 ± 0.0091
UCCUGGAUGAGCUUGCAUAGCAUUUAGUUA,0.278 ± 0.032,0.0295 ± 0.0063
UCCACCUACAGCUUGCAUAGUAUUUAGUUG [g2:g27:cont:t1G],0.399 ± 0.047,0.0371 ± 0.0065
UGGACCAUGAGCUUGCAUAGUAUUUAGAAA,0.284 ± 0.034,0.0068 ± 0.0022
UCCUGGAUGAGCUUGCAUAGUAUCUUAGUUA,0.497 ± 0.038,0.0202 ± 0.007
UCCUGCUACAGCUUGCAUAGUAUUUAAGUUA,1 ± 0.068,0.0232 ± 0.0057
UCCUGCUACGGCUUGCAUAGUAUUUAGUUA,0.998 ± 0.057,0.0399 ± 0.0072
UCCUGGAUGUCCUUGCAUUGUAUUUAGUUA,0.0123 ± 0.0044,0.00432 ± 0.0019
UGGACCUACAGCUUGCAUAGUAUCUAGUUA,0.814 ± 0.055,0.0409 ± 0.0077
UCCUGGAUCAGCAUGCAUAGUAUUUUGUUA,0.517 ± 0.03,0.00866 ± 0.003

Sequence,pre-steady-state target cleavage rate [1],pre-steady-state target cleavage rate [2]
UGGACCUACUGCUAGCAUAGUAUUUAGUUA,1.3 ± 0.075,0.032 ± 0.0066
UCCUGGUACAGCUUGCAAAGUAUUUAGUAA,0.311 ± 0.039,0.0192 ± 0.0039
UCCUGGAACAGCUUGCAUUGUAUUUACAAA,0.0806 ± 0.023,0.00315 ± 0.0021
UCCUGGAUCAGCUUGCAUUGUAUUAAGUUA,0.227 ± 0.02,0.00832 ± 0.0034
UGGACCUACAGCUUGCUAAGUAUUUAGUAA,0.0584 ± 0.0078,0.00222 ± 0.0019
UCCUCCUACAGCUUGCAUAGAAUUUAGAAA,0.256 ± 0.046,0.00309 ± 0.0023
UCCUGGAUGUGCUUGCAUAGUAUUUAGUUA [g2:g20:cont:t1A],0.497 ± 0.03,0.043 ± 0.0088
UCCUGCUACAUCUUGCAUAGUAUUUAGUUA,0.629 ± 0.035,0.0492 ± 0.007
AGGACCUACAGCUUGCUUAGUAUUUACAAA,0.322 ± 0.046,0.00388 ± 0.0028
UCCUGGAACAGCUUGCAUAGUAUAAAGUAA,0.36 ± 0.064,0.00442 ± 0.0033
UCCACCUUCAGCUUGCAUUGUAUUUAGUUA,0.879 ± 0.025,0.0245 ± 0.0059
AGGACCUACAGCUUGCAUAGUACUUUAGUUA,0.774 ± 0.062,0.0376 ± 0.011
AGGACCUACAGGUUGCAUAGUAUUUAGAUA,0.472 ± 0.053,0.0379 ± 0.0093
UCCUCGAUCAGCUUGCAUAGUAUUUUCAAA,0.307 ± 0.038,0.00426 ± 0.0022
UGGACCUACUGCUUGCAUAGUAUUUACUUA,0.199 ± 0.016,0.0355 ± 0.0061
UCCUGGAUCAGGUUGCAUAGUUUUUAGUUA,0.0569 ± 0.0093,0.00915 ± 0.0026
UCCUGGAACACCUUGCAUAGUAUUUAGUUA,0.596 ± 0.053,0.0159 ± 0.0034
UCCUCCUACACGUUGCAUAGUAUUUAGUAA,0.507 ± 0.035,0.00568 ± 0.0015
UCCUGGAACAGCUAGCAUAGUAAUUAGUUA,0.369 ± 0.024,0.00836 ± 0.0027
UCCUGGAUGUCCUUGCAUAGUAUUUAAGUUA,0.0513 ± 0.0091,0.00941 ± 0.0028

Sequence,pre-steady-state target cleavage rate [1],pre-steady-state target cleavage rate [2]
UCCACCUACAGCUUGCAUUGUAUUUUGUUA,0.407 ± 0.026,0.0116 ± 0.0027
UCCACCUACUGCAUGCAUAGUAUUUAGUUA,0.993 ± 0.029,0.0308 ± 0.0066
UCGACCUACAGCUUGCAUCGUAUUUAGUUA,0.546 ± 0.016,0.0292 ± 0.0057
UCCUGCUACAGCUUGCAUUGAAUUUAGUUA,0.168 ± 0.012,0.00991 ± 0.0044
AGGACCUAGAGCUUGCAUAGUAUUUAGAAA,0.332 ± 0.051,0.0106 ± 0.0033
AGGACCUACAGCUUGCAAAGUAUUUUCAAA,0.291 ± 0.042,0.00479 ± 0.0021
UCCUGGAACAGCUUGCAUAGUAUUUAAGUUA,0.549 ± 0.034,0.0597 ± 0.014
UGGACGUAGAGCUUGCAUAGUAUUUAGUUA,1.29 ± 0.083,0.043 ± 0.0093
UGGACCUAGAGGUUGCAUAGUAUUUAGUUA,0.513 ± 0.07,0.0198 ± 0.003
UCCUGCUACACCUUGCUUAGUAUUUAGUUA,0.627 ± 0.047,0.0251 ± 0.005
UCCACCUACAGCUUGCAUUGUAUUUAGUUA,0.827 ± 0.033,0.0247 ± 0.0055
UCCUGGAUGUGCUUGCUUAGUAAUUAGUUA,0.00705 ± 0.0034,0.00427 ± 0.0028
UCCUGCUACAGGUAGCAUAGUAUUUAGUUA,1.27 ± 0.14,0.00376 ± 0.0023
UCCUGGAUGUGUUUGCAUAGUAUUUAGUUA,0.415 ± 0.033,0.0281 ± 0.0056
UCCUGCUACAGCUUGCUUUGUAUUUAGUUA,0.242 ± 0.022,0.00838 ± 0.0019
UGGACCUACAGGAUGCAUAGUAUUUAGUAA,0.941 ± 0.08,0.01 ± 0.0022
UCGACCUACAGCAUGCAUAGUUUUUAGUUA,0.465 ± 0.025,0.0154 ± 0.0029
UCGACGUACAGCUUGCAUAGUAUUUAGUUA,1.56 ± 0.046,0.0711 ± 0.011
UUGACCUACAGCUUGCAUAGUAUUUAGUUA,1.16 ± 0.061,0.0724 ± 0.012
UCCUGGAACAGCUUGCAUAGUAAUUAGUAA,0.309 ± 0.034,0.00877 ± 0.0031

# From the supplement of paper PMC10338343
